Experimental data taken from PubChem BioAssay AID504832 (National Center for Advancing Translational Sciences (NCATS), 2011).
About 18,000 (5.8%) of roughly 310,000 compounds were called active. This list was built around the results that the source calls inconclusive (neither active nor inactive); the mix of calls is not that of the screen. Calls follow the shape of the dose curve; as a rule, active = well fitted inhibition curve with a large enough effect; inconclusive = small, poorly fitted or top-dose-only effect, or another doubt; inactive = no such curve, though single readings can be large or run the other way. Potencies of inconclusive entries are left out as doubtful fits.

Test: Primary qHTS for delayed death inhibitors of the malarial parasite plastid, 48 hour incubation
Conditions: P. falciparum luciferase growth in erythrocytes; series mostly up to 28.7 µM
Procedure, shortened: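 Parasite viability was followed by luminescence of a genomically integrated firefly luciferase. Cultures held 0.1% parasitemia at 2% hematocrit (final), incubated under 5% CO2 at 37 C.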
Potency is read from the fitted curve at half-maximal effect; tags tell the direction and shape of the fitted curve.

SMILES	Potency
Cc1oc(-c2cc(F)ccc2F)nc1CN(C)Cc1ccc2nccnc2c1	inconclusive [inhibitor, partial curve, poor fit]
CCN(CC)S(=O)(=O)c1ccc2c(c1)C(=NO)c1cc(S(=O)(=O)N(CC)CC)ccc1-2	active: 9.28 µM
COc1ccc(NC(=O)Cn2c(=O)n(Cc3ccco3)c(=O)c3ccccc32)cc1	inconclusive [inhibitor, single point]
COc1ccc2nc(NC(=O)CSc3nccc(C)n3)sc2c1	inactive
Cc1ccc2nc(-c3cccc(S(=O)(=O)N4CC(C)OC(C)C4)c3)cn2c1 (stereo not drawn)	inconclusive [inhibitor, partial curve, poor fit]
CCN(CC)S(=O)(=O)c1cc(NC(=O)COC(=O)c2c(C)noc2C)ccc1C	inconclusive [inhibitor, single point]
C#CCNC(=O)C1=C[C@H](C2CCCCC2)[C@@H](CCCO)[C@H](OCC)O1	inconclusive [inhibitor, single point]
Cc1ccccc1S(=O)(=O)Cc1ccc(C(=O)NC2CC2)o1	inactive
CCN(CCO)C(=O)C(c1ccccc1)c1ccccc1	inconclusive [inhibitor, full curve, poor fit]
CC1CCN(CCOCCSc2ccc(Cl)cc2)CC1	inconclusive [inhibitor, single point]
COc1ccc(OC)c(NC(=O)C2CCN(S(=O)(=O)c3ccc4c(c3)OCCO4)CC2)c1	inconclusive [inhibitor, single point]
CCOC(=O)Cn1c(=NC(=O)CC)sc2c(C)cc(C)cc21	inconclusive [inhibitor, partial curve, poor fit]
O=C(C[n+]1ccc(C(=O)NCc2ccccc2)cc1)c1ccc(OC(F)F)cc1	inactive
Cc1cc(Nc2cccc(Cl)c2Cl)n2ncnc2n1	inactive
CCc1c(C)sc(NC(=S)Nc2nc(C)cc(C)n2)c1C(=O)OC	inconclusive [inhibitor, single point]
CCCCCCSc1cc(-c2nc3cnccn3c2NCc2ccccc2)ccc1OC	active: 7.38 µM
CC(C)(C)OC(=O)[C@H](Cc1ccccc1)NC(=O)c1[nH]cnc1C(=O)N[C@@H](Cc1ccccc1)C(=O)OCc1ccccc1	inconclusive [inhibitor, partial curve, poor fit]
COc1ccc(C(=O)O/N=C(\N)Cc2ccc([N+](=O)[O-])cc2)c(OC)c1	inconclusive [inhibitor, single point]
CCOC(=O)C(=CNc1cc(C)nn1C(C)(C)C)C(=O)OCC	inconclusive [inhibitor, single point]
COc1ccc(NC(=O)C2CCN(C(=O)c3cccs3)CC2)cc1	inactive
COc1ccccc1CNC(=O)CN1CCN(S(=O)(=O)c2cccs2)CC1	inconclusive [inhibitor, single point]
Cc1cccc(N2CCN(C3=NC(=O)/C(=C\c4cn[nH]c4-c4ccccc4)S3)CC2)c1	active: 5.22 µM

SMILES	Potency
Cc1ccc(-c2c(C(=O)N/N=C/c3ccncc3)nnn2-c2nonc2N)cc1	inconclusive [inhibitor, partial curve, poor fit]
Cc1cc(C)n(S(=O)(=O)c2ccc(C(C)(C)C)cc2)n1	inconclusive [inhibitor, partial curve]
CCCC(=O)c1cc(CP(=O)(OCC)OCC)oc1C	inactive
CCOC(=O)c1ccccc1NC(=O)CN(c1ccccc1)S(=O)(=O)N(C)C	active: 3.29 µM
O=C(CN1C(=O)CSC1=O)Nc1ccc(N2CCOCC2)cc1	inactive
Cc1onc(-c2c(Cl)cccc2Cl)c1C(=O)NCc1ccco1	inconclusive [inhibitor, single point]
CCC(C)[C@H](NC(=O)c1cn(CC)c2cc3c(cc2c1=O)OCO3)C(=O)NCCCn1ccnc1 (stereo partly drawn)	inconclusive [inhibitor, partial curve, poor fit]
CC(NC(=O)COC(=O)C1CSC2(C)CCC(=O)N12)C12CC3CC(CC(C3)C1)C2 (stereo not drawn)	inactive
CC(OCCN1CCCC1)(c1ccc(F)cc1)c1ccc(F)cc1	inconclusive [inhibitor, single point]
CCCCOc1ccc(C(=O)NCC(=O)NCCCn2nc(C)cc2C)cc1	inconclusive [inhibitor, single point]
N#Cc1ccsc1NC(=O)C1CCN(C(=O)c2ccc(F)cc2)CC1	inconclusive [inhibitor, partial curve]
CCOc1cc(CNc2ccc(N3CCN(C(C)=O)CC3)cc2)cc(Br)c1OC	inconclusive [inhibitor, partial curve, poor fit]
CC(C)c1ccc(N(C(=O)c2snc(C(N)=O)c2N)C(C(=O)NC2CCCC2)c2ccncc2)cc1 (stereo not drawn)	inconclusive [inhibitor, single point]
CC(=O)N(Cc1cc2c(C)cc(C)cc2[nH]c1=O)C1CCCCC1	inconclusive [inhibitor, partial curve]
CCOC(=O)c1c(-c2ccccc2)csc1NC(=O)c1nn(CC)cc1Br	active: 13.1 µM
COc1ccc(-c2cc(C)no2)cc1S(=O)(=O)N1CCN(c2ccccc2F)CC1	inactive
Cc1ccc(/C=N/NC(=O)c2cc3c(ccc4ccccc43)o2)cc1[N+](=O)[O-]	inconclusive [inhibitor, full curve, poor fit]
Cc1c(C(=O)Nc2ccc3c4c(cccc24)CC3)cccc1[N+](=O)[O-]	inconclusive [inhibitor, single point]
O=C(NNc1nc2cc3c(cc2s1)OCCO3)c1ccccc1	inactive
O=C1C(=O)N(CCCn2ccnc2)C(c2cccnc2)/C1=C(/O)c1ccc(F)cc1 (stereo not drawn)	inactive
CCCC1c2ccc(C)n2CCN1C(=O)Nc1ccc(F)cc1 (stereo not drawn)	inconclusive [inhibitor, single point]
